Measured values reported in publication PMC12136788.
The other results are listed elsewhere or left out.

B1: chr2:241070358:241070359:-_ENSG00000172428_ENST00000607357|hu_hu|FALSE|FALSE (ssRNA)
RNA: GGGAGUUCUACAGUCCGACGAUCGAACAGAAUCAUCUAGGUCGUUAAGAACAGUCUUAUCUUUCUGGUUAACCAGGUCCUAAAUUCAAGGGAUUUCCACGUGUUCUUUAAAACCACCUGAAACUGUCCUGCGCAGGCUCACACCAACAGAGGAUUGAGCAUCA
B2: 93608286_93609282_2944_CDS_ENSG00000107854_ENST00000371627|human|control|control (ssRNA)
RNA: GGGAGUUCUACAGUCCGACGAUCAUCUACUCCUGGAACCUCCUUUUUCUCCAAACUGGAAGCACCCUCUGUUCCACUUGAACUAACUACUGAAGACAGUUCUGAAAAACUCCCAGAUAAGUUGUCAAGACUGCUGGCUGCAGACAACAGAGGAUUGAGCAUCA
B3: chr5:173383253:173383254:+_ENSG00000113742_ENST00000334035|hu_hu|FALSE|FALSE (ssRNA)
RNA: GGGAGUUCUACAGUCCGACGAUCAAAACACCUAUAUUAUAGGUCAUUCUUUUCAUUAUACUAUAGUUAAGUUACAGACUGCUACAAAAGGACAUGCCAGCGUGAAGAGGUUGAGGAAGGGGUCAGAAUGAACAGAAGAGUGCACAACAGAGGAUUGAGCAUCA
B4: chrX:98862621:98862622:+_ENSMUSG00000034160_ENSMUST00000044475|mus_hu|mus_mus_mus_hu_False|18_48 (ssRNA)
RNA: GGGAGUUCUACAGUCCGACGAUCCUGCAUCUCCUUUAGAGUGUUUCCCAUAUUAGAGUAGGCAUCAGCAAAGGUAGGACUGAUUCGUAUGGCUUCUUUAUAAUGCAUCAGAGCUUCCUGCAGCUUGCCCUGCUGCUGCAGUACCAACAGAGGAUUGAGCAUCA
B5: chr6:52671308:52671309:+_ENSMUSG00000004535_ENSMUST00000080723|mus_hu|FALSE|FALSE (ssRNA)
RNA: GGGAGUUCUACAGUCCGACGAUCCCACAUUUUGAAAGAUGACAUGGGCAAAGUUGGAAGUCUGCAAUGGGACUUCUUGAAAGGAUGUCAUUGUGAAUCCAGUGGAAAGACUCCCGGAUCAAGGGAGAAAGUUACGCAGGCUUCCAACAGAGGAUUGAGCAUCA
B6: chr10:70508923:70508924:+_ENSG00000060339_ENST00000535016|hu_hu|motif|central (ssRNA)
RNA: GGGAGUUCUACAGUCCGACGAUCUCUUCCUGAAAAUCGGGAUGGGGGAUCUAAUCGUCGUGCCGGUUGUGGCUGUGAAACGGUACGAACAGGAGGCUGCAAUAAACCAGCUUUUUGCUGAGGCUGCUGUAAUAAGGGCUGUGGCAACAGAGGAUUGAGCAUCA
B7: chr4:17845017:17845018:+_ENSG00000109805_ENST00000514176|hu_mus|hu_hu_hu_mus_False|38_88 (ssRNA)
RNA: GGGAGUUCUACAGUCCGACGAUCGCUCUCUUAACUUGUAUCUUCAUGAGAAAUUGGUGCAAGGUUAAGUUUACUUUUCUGUAGCGCAGCUGUUUUGCUCGUCUUGGGUAAUCUCAUCUUCAUUUCUGAUGGUGGUUCAUGAUCCAACAGAGGAUUGAGCAUCA
B8: chr2:60072280:60072281:+_ENSMUSG00000026977_ENSMUST00000102748|mus_mus|FALSE|FALSE (ssRNA)
RNA: GGGAGUUCUACAGUCCGACGAUCUCUUCGUGAGAAAAAAGUAGAUGACAUGCUAGAAGCUAUCCGUGACAGCAAUCUCCUAGUUGUACGCCUACCUUCAUUGUCAGAAGAUUCUCGAUAUGGUCUCUGAGAUGAACCCCUUUCCAACAGAGGAUUGAGCAUCA
B9: chr19:7500544:7500545:-_ENSMUSG00000024758_ENSMUST00000025667|mus_hu|FALSE|FALSE (ssRNA)
RNA: GGGAGUUCUACAGUCCGACGAUCCACAGACACGUACACACAGUUUCAUUAGUAAUUUUUCAUCUAUAGGUUUUUCUUAAAAAAAAAAAAAAAUCCUGUGUGGCACAAAGAUCUCUUCAAUUAUCUAAACACAGCAGCAACAAACAACAGAGGAUUGAGCAUCA
B10: 119749387_119749507_2886_CDS_ENSMUSG00000033943_ENSMUST00000110774|mouse|control|control (ssRNA)
RNA: GGGAGUUCUACAGUCCGACGAUCAACAGGGUAUGGUAAAAUAGACUUAUAAGAUGAUUUAGUUCGGCCACUGAGUGUUGUCUGUUUGUUCUGAGCCUUUGUUUUUCGAGAGGCAGUGGUUACAGACUGAGGCUUCACAGAGUGCAACAGAGGAUUGAGCAUCA
B11: chr4:76703833:76703834:+_ENSG00000138768_ENST00000264904|hu_hu|motif|central (ssRNA)
RNA: GGGAGUUCUACAGUCCGACGAUCUUGGAGUUGUUGUUUUUUAAUAAGUUUUGGAGCAAAAUCAAACAAUCUUCAACGGCGGUACCUCCAUCACUGUUCCCCUCCUCUGAAAUAAUGUCCAGUAGUCUCUCGAAAGCAUUUUCACAACAGAGGAUUGAGCAUCA
B12: chr19:16212804:16212805:+_ENSG00000167460_ENST00000300933|hu_mus|hu_hu_hu_mus_False|8_98 (ssRNA)
RNA: GGGAGUUCUACAGUCCGACGAUCAACAAUUCUGGAGAAGAACAUCAAUGUAACAUGGAACAGCAUUAAAGCUCAGUCAGAAGGCACAUGGGCAACAAUGAUCACCCCAGCAUUCUCGCUUGGAAUGUGCUUGAGAAAUCUGUUCAACAGAGGAUUGAGCAUCA
B13: chr5:31825596:31825597:-_ENSMUSG00000053134_ENSMUST00000065388|mus_hu|FALSE|FALSE (ssRNA)
RNA: GGGAGUUCUACAGUCCGACGAUCAGCCAGUUAUUUAUGUAAAAAGUAGGCUAUUUGUGACCACUUAGAAAAAUGUCAGUGUCAGCAAAACUGUAGGACCAAAGGUGUUCUCCCUUUGCAGAUUCAUUGUCCAUAUGUCUCUUCCAACAGAGGAUUGAGCAUCA
B14: chrX:15845472:15845473:-_ENSG00000182287_ENST00000329235|hu_mus|FALSE|FALSE (ssRNA)
RNA: GGGAGUUCUACAGUCCGACGAUCCCACAAGAAGUCAUCAGCAAGGGAGGACAGUUAUGUCAGUCCAAUUUCUUCAAGAACACUACGUGGGGUUUCAGCUUCUUUUGCAUCCUCCUGCAGGAGAUCGGCCUGCUCAAUUGCUUUCAACAGAGGAUUGAGCAUCA
B15: chr7:7679991:7679992:-_ENSG00000106399_ENST00000396682|hu_hu|hu_hu_hu_mus_False|18_28 (ssRNA)
RNA: GGGAGUUCUACAGUCCGACGAUCUGGGAUGAAUCUUUUCCAGCUUCCCCACGAAGCACACGGGCCGGUCGAUAUACUGUGGUAACAUGCUGGCGUUGACGCGCGCUCUGGGCAAGUCCAUCAUGUCCUCCAUGAUUCUGCCGCCAACAGAGGAUUGAGCAUCA
B16: chr12:52885226:52885227:-_ENSMUSG00000035247_ENSMUST00000042052|mus_hu|FALSE|FALSE (ssRNA)
RNA: GGGAGUUCUACAGUCCGACGAUCUUUAAAAACAUUUAUUCUUUCUACCAGUUGACUACAAUCUUGUUUCAUAUCCAAAUCCAUGCUAUUGUUUAACACAGUAAGAAGUGCUUGUACCAAGCCACUGCUACACAUUUCAUAUGGCAACAGAGGAUUGAGCAUCA
B17: 73094735_73096627_1794_CDS_ENSMUSG00000022607_ENSMUST00000110036|mouse|control|control (ssRNA)
RNA: GGGAGUUCUACAGUCCGACGAUCUCUUACUUGCAAAAAUGACCUCAGCUCUCCAAGUGUGCACAACUCCAUGAUUAUCCAGACAGGGUUCUCUGUAAUGACUCCAAUCAGCUUCACGAUGUGAGGAUGGUCAAACUGACGCAUCAACAGAGGAUUGAGCAUCA
B18: chr16:75691255:75691256:+_ENSG00000166848_ENST00000300086|hu_mus|FALSE|FALSE (ssRNA)
RNA: GGGAGUUCUACAGUCCGACGAUCAAAGUUUUAUUUAUUUUCAAUGACAAAAACAACACAGCAAAGUGGACCAAGGCCACUCAAUUUUAAGUCUAGCAUAAUUUUCAGCAGAAAACGUAUGUUCCACAUAAUUUUAAAAUUGACCAACAGAGGAUUGAGCAUCA
B19: chr3:149684035:149684036:-_ENSG00000070087_ENST00000452853|hu_mus|motif|central (ssRNA)
RNA: GGGAGUUCUACAGUCCGACGAUCAGUUCAUAUGUUUUCUUGUUAAUUGUGCCUGCGUGGACACCUUCCUUUCCCAUGACGGUAACCAAUGCUGGAGUACACAAGGAAACAAAACAAAAAUGAACACAAUUAUUUAAGGGGAAGCAACAGAGGAUUGAGCAUCA
B20: chr11:93905761:93905762:+_ENSMUSG00000020859_ENSMUST00000103168|mus_hu|FALSE|FALSE (ssRNA)
RNA: GGGAGUUCUACAGUCCGACGAUCAGCUGGCACACCGGUAGAAAUAGAAAAGUGCACAAGCAGCAAAACAGAGAGAGAUACUAAGAUAGCAGAAUUAAUGACCACCGCCCCGCCAACAAAGCCAAACACAAACAGCAGCAUGCACAACAGAGGAUUGAGCAUCA
B21: 46685465_46685585_100_5pUTR_ENSMUSG00000033319_ENSMUST00000036226|mouse|control|control (ssRNA)
RNA: GGGAGUUCUACAGUCCGACGAUCUCCCUCCCGGGCCGUUCGCGUUGCAGCAGCUGCCGUGGCGGAUGGUGUAAUGGGCUGCAGGCCCGGGGGCCGGACGAGCCAGUUCGCUCCUUCACAUUACUGACGCCGCAGCCGCGCCAUCAACAGAGGAUUGAGCAUCA
B22: chr4:115894766:115894767:+_ENSMUSG00000028698_ENSMUST00000030464|mus_hu|mus_mus_mus_hu_True|38_88 (ssRNA)
RNA: GGGAGUUCUACAGUCCGACGAUCUUCCACACGGAAAUGUACUUCGGGUUUCCAACGGGCCAGUACCAGUCCGGCCAAACUACCCGAACAGGGUCCUGUCCUCCUCUCCUACAGAACACAACAAAAUGCCCCCGAACUUUCAAGCAACAGAGGAUUGAGCAUCA

Molecular target: T1, UNK ZnF1-3 (human, UniProt Q9C0B0 31-174)
T1 sequence: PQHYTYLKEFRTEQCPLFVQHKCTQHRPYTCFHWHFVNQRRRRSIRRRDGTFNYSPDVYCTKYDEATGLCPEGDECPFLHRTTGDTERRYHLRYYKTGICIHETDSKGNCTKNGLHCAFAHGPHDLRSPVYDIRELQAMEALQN
Test: nsRBNS (natural sequence RNA bind-n-seq); RBNS binding buffer (assumed for nsRBNS): 25 mM Tris pH 7.5, 150 mM KCl, 3 mM MgCl2, 0.01% Triton X-100, 500 ug/ml BSA, 20 U/ml SUPERase-In, 4 C; UNK is unkempt and MSI1 is Musashi-1; names of the RNAs are library labels; protein concentration not given here; high values mean tight binding

Binder	binding signal [enrichment R]
B1	1.02
B2	1.27
B3	1.87
B4	0.956
B5	1.29
B6	1.37
B7	0.344
B8	0.488
B9	1.84
B10	0.733
B11	1.19
B12	1.28
B13	1.98
B14	1.04
B15	0.687
B16	1.03
B17	1.14
B18	1.58
B19	1.04
B20	2.74
B21	0.519
B22	0.994
